# Measured values from PubChem BioAssay AID1963576 (National Center for Advancing Translational Sciences (NCATS), 2024).
# Among all 46,000 compounds or so, about 60 (0.1%) were called active. About 3% were inconclusive and are not listed. Calls follow the shape of the dose curve; as a rule, active = well fitted inhibition curve with a large enough effect; inconclusive = small, poorly fitted or top-dose-only effect; inactive = no such curve, though single readings can be large or run the other way. Some of the results follow.
# Test: Primary qHTS assay for Inhibitors of ovarian cancer metastasis using an organotypic tumor microenvironment (TME) model. Also: nearly all actives have a fitted effect of over 65% in size.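 As to activity change, negative = inhibition: plate controls were DMSO wells for no effect and tomatine positive control wells for full effect.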
# Settings: SKOV3ip1-GFP adhesion/invasion on 3D omental model, fluorescence; series mostly up to 45.8 µM; activity change, negative = inhibition: at the top concentration
# How it was run: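 Adhesion/invasion was scored as fixed GFP-labeled SKOV3ip1 cell counts (488/509 nm), normalized to DMSO and tomatine controls. Cancer cells in serum-free medium, with four compound doses (0.36-46 umol/L), sat 2 hr at RT then 16 hr at 37 C on a 48 hr fibroblast/mesothelial/ECM culture.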
Structure (SMILES),outcome,"activity change, negative = inhibition"
CCS(=O)(=O)N1CCc2cc(C(=O)Nc3cc(Cl)ccc3C)ccc21,inactive,–
Cc1nn2c(-c3cccc(NC(=O)c4ccc(Cl)cc4)c3)nnc2c2ccccc12,–,inactive: -2.11%
CCCCOCc1cc(CN2CCN(c3cccc(Cl)c3)CC2)c(O)c2ncccc12,–,inactive: -23.5%
COc1ccc(CCNC(=O)CCS(=O)(=O)c2ccc3c(c2)oc(=O)n3C)cc1OC,inactive,–
Cc1ccc(N2CCN(C(=O)c3cn(C)c4ccc(S(=O)(=O)N(C)C5CCCCC5)cc4c3=O)CC2C)cc1 (stereo unspecified),inactive,–
COc1ccc(-n2c(-c3ccco3)nc3c(cnn3-c3ccc(C)cc3)c2=O)cc1,–,inactive: 9.19%
CC(C)C(=O)Nc1ccc2nc(SCCOc3ccccc3)sc2c1,–,inactive: 5.02%
CCOC(=O)c1c(C)[nH]c(CCC(=O)Nc2ccccc2C(=O)OC)c1C,inactive,–
CCn1c(=O)n(CC)c2cc(N3CCCCC3)c(NC(=O)Nc3cc(Cl)ccc3OC)cc21,–,inactive: -3.46%
COc1ccccc1NC(=O)C1=C(C)Nc2nc(SCc3cc(C)ccc3C)nn2C1c1ccccc1 (stereo unspecified),–,inactive: 8.05%
COCCCNC(=O)CCc1c(C)nc2cc(-c3ccc(Cl)cc3)nn2c1C,inactive,–
CC(C)Cn1c(/C=C/c2ccc(F)cc2)nc2ccccc21,–,inactive: -13.8%
O=C(c1cccs1)N1CCCc2cc(NS(=O)(=O)c3ccc(F)cc3)ccc21,–,inactive: -8.77%
O=C(CSc1nnc(CNC(=O)c2c(F)cccc2Cl)o1)Nc1cccc(F)c1,–,inactive: -5.11%
CCOc1ccc(NS(=O)(=O)c2ccc(NC(=O)N3CCCC3)cc2)cc1,–,inactive: -2.08%
O=C(Nc1ccc2nn(-c3ccccc3)nc2c1)c1ccc(-c2cccc(Cl)c2)o1,–,inactive: -23.4%
CCOc1ccc(C(=O)N2CCN(Cc3cc(=O)n4nc(-c5ccccc5Cl)sc4n3)CC2)cc1,–,inactive: 4.78%
CCn1c(C)c(C)c2cc(C(=O)NCCc3ccc(C)cc3)ccc21,–,inactive: 5.57%
O=C(c1ccc2c(=O)n(CCc3ccccc3)c(=O)[nH]c2c1)N1CCN(c2ccc(Cl)cc2)CC1,–,inactive: -5.85%
Cc1ccc(NC(=O)Cn2c(=O)ccc3cc(S(=O)(=O)N4CCC(C)CC4)ccc32)cc1Cl,–,inactive: -4.54%
Cc1ccc(C)c(NC(=O)c2cc(=O)c3cc(C)cc(C)c3o2)c1,–,inactive: -1.11%
COc1cccc(NC(=O)CCNC(=O)Cn2ccc3ccccc3c2=O)c1,–,inactive: -1.77%
Cc1ccccc1CS(=O)(=O)Cc1ccc(C(=O)NCc2ccc(F)cc2)o1,–,inactive: 2.99%
O=C1CC(c2ccc(Cl)cc2)N=C(NC(=O)c2ccccc2)N1 (stereo unspecified),–,inactive: 2.38%
CCc1ccc(NCc2cc3cc4c(cc3n(CC(=O)Nc3ccc(F)cc3)c2=O)OCCO4)cc1,inactive,–
COc1ccc(CNC(=O)C2CCN(S(=O)(=O)c3cccc4nonc34)CC2)cc1OC,–,inactive: 3.5%
